# Experimental data: the supplement of paper PMC8728848
# The list shows a part of the results.
# Tests used:
# Assay in all cases: glycan array binding signal (z-score within array); higher = stronger binding
# Conditions in all cases: glycan notation: IUPAC condensed, linker removed
# [1] = target: Fuc(a1-3)[Gal3S(b1-4)]GlcNAc6S
# How it was run: (§1)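 Glycan array data were curated from 3228 arrays in the Consortium for Functional Glycomics database and kept only where the protein sequence was available. Glycan names were converted to IUPAC-condensed notation, and columns mapping to the same glycan were averaged. The binding signal is a within-array Z-score, averaged across arrays of the same protein sequence at different concentrations or buffers and across linkers. Negative Z-scores can be read as non-binding.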
# [2] = target: Fuc(a1-3)[GalNAc(b1-4)]GlcNAc
# How it was run: as §1
# [3] = target: Fuc(a1-3)[GalNAc(b1-4)]GlcNAc6S
# How it was run: as §1
# [4] = target: Fuc(a1-4)GlcNAc
# How it was run: as §1
# [5] = target: Fuc(b1-3)GlcNAc
# How it was run: as §1
# [6] = target: Gal(a1-2)Gal
# How it was run: as §1
# [7] = target: Gal(a1-3)Gal
# How it was run: as §1
# [8] = target: Gal(a1-3)Gal(b1-3)GlcNAc
# How it was run: as §1
# [9] = target: Gal(a1-3)Gal(b1-3)GlcNAc(b1-2)Man
# How it was run: as §1
# [10] = target: Gal(a1-3)Gal(b1-3)GlcNAc(b1-2)Man(a1-3)[Gal(a1-3)Gal(b1-3)GlcNAc(b1-2)Man(a1-6)]Man(b1-4)GlcNAc(b1-4)GlcNAc
# How it was run: as §1
# [11] = target: Gal(a1-3)Gal(b1-3)GlcNAc(b1-3)GalNAc
# How it was run: as §1
# [12] = target: Gal(a1-3)Gal(b1-3)GlcNAc(b1-6)GalNAc
# How it was run: as §1
# [13] = target: Gal(a1-3)Gal(b1-3)[Fuc(a1-4)]GlcNAc(b1-2)Man(a1-3)[Gal(a1-3)Gal(b1-3)[Fuc(a1-4)]GlcNAc(b1-2)Man(a1-6)]Man(b1-4)GlcNAc(b1-4)GlcNAc
# How it was run: as §1
# [14] = target: Gal(a1-3)Gal(b1-4)Glc
# How it was run: as §1
# [15] = target: Gal(a1-3)Gal(b1-4)GlcNAc
# How it was run: as §1
# [16] = target: Gal(a1-3)Gal(b1-4)GlcNAc(b1-2)Man
# How it was run: as §1
# [17] = target: Gal(a1-3)Gal(b1-4)GlcNAc(b1-2)Man(a1-3)[Gal(a1-3)Gal(b1-4)GlcNAc(b1-2)Man(a1-6)]Man(b1-4)GlcNAc(b1-4)GlcNAc
# How it was run: as §1
# [18] = target: Gal(a1-3)Gal(b1-4)GlcNAc(b1-3)GalNAc
# How it was run: as §1
# [19] = target: Gal(a1-3)Gal(b1-4)GlcNAc(b1-6)GalNAc
# How it was run: as §1
# [20] = target: Gal(a1-3)Gal(b1-4)[Fuc(a1-3)]GlcNAc
# How it was run: as §1
# [21] = target: Gal(a1-3)Gal(b1-4)[Fuc(a1-3)]GlcNAc(b1-2)Man(a1-3)[Gal(a1-3)Gal(b1-4)[Fuc(a1-3)]GlcNAc(b1-2)Man(a1-6)]Man(b1-4)GlcNAc(b1-4)GlcNAc
# How it was run: as §1
# [22] = target: Gal(a1-3)GalNAc
# How it was run: as §1
# [23] = target: Gal(a1-3)[Gal(a1-4)]Gal(b1-4)GlcNAc
# How it was run: as §1
# [24] = target: Gal(a1-4)Gal(b1-3)GlcNAc(b1-2)Man(a1-3)[Gal(a1-4)Gal(b1-3)GlcNAc(b1-2)Man(a1-6)]Man(b1-4)GlcNAc(b1-4)GlcNAc
# How it was run: as §1
# [25] = target: Gal(a1-4)Gal(b1-4)Glc
# How it was run: as §1
# [26] = target: Gal(a1-4)Gal(b1-4)GlcNAc
# How it was run: as §1
# [27] = target: Gal(a1-4)Gal(b1-4)GlcNAc(b1-2)Man(a1-3)[Gal(a1-4)Gal(b1-4)GlcNAc(b1-2)Man(a1-6)]Man(b1-4)GlcNAc(b1-4)GlcNAc
# How it was run: as §1
# [28] = target: Gal(a1-4)Gal(b1-4)GlcNAc(b1-3)Gal(b1-4)Glc
# How it was run: as §1
# [29] = target: Gal(a1-4)GlcNAc
# How it was run: as §1
# [30] = target: Gal(a1-6)Glc
# How it was run: as §1
# [31] = target: Gal(b1-2)Gal
# How it was run: as §1
# [32] = target: Gal(b1-3)Gal
# How it was run: as §1
# [33] = target: Gal(b1-3)Gal(b1-4)GlcNAc
# How it was run: as §1
# [34] = target: Gal(b1-3)GalNAc
# How it was run: as §1
# [35] = target: Gal(b1-3)GalNAc(a1-3)[Fuc(a1-2)]Gal(b1-4)Glc
# How it was run: as §1
# [36] = target: Gal(b1-3)GalNAc(a1-3)[Fuc(a1-2)]Gal(b1-4)GlcNAc
# How it was run: as §1
# [37] = target: Gal(b1-3)GalNAc(b1-3)Gal
# How it was run: as §1
binder,measurement,setting,value
Epa13 (Candida glabrata) (protein) MGSSHHHHHHSSGLVPRGSHMASDSSENGYAHGCSPSIRAKLKPGLSMEIYSYALRPTDDHCWDSAYLDPMFPRTGYLTHKLLGKAEGIIGPLNFLAKNPACIPAVSTLPLAFHFPKPFTITNFTMLLYGYLSPKKTGKYTFKLLADDLLLMNFGADNAFDCCSHDATKDNIGEYVAYSVWPGVNKNVTVYLESGIYYPLRLFFNNRDAIAQLDFAYYFNDSPIRQTDFSGMFFSIPDSVKCPANI,glycan array binding signal (z-score),[1],-0.376
same,glycan array binding signal (z-score),[2],0.123
same,glycan array binding signal (z-score),[3],-0.565
same,glycan array binding signal (z-score),[4],-0.281
same,glycan array binding signal (z-score),[5],-0.246
same,glycan array binding signal (z-score),[6],-0.328
same,glycan array binding signal (z-score),[7],0.919
same,glycan array binding signal (z-score),[8],0.824
same,glycan array binding signal (z-score),[9],1.21
same,glycan array binding signal (z-score),[10],0.899
same,glycan array binding signal (z-score),[11],-0.067
same,glycan array binding signal (z-score),[12],1.13
same,glycan array binding signal (z-score),[13],0.566
same,glycan array binding signal (z-score),[14],0.096
same,glycan array binding signal (z-score),[15],0.672
same,glycan array binding signal (z-score),[16],0.125
same,glycan array binding signal (z-score),[17],4.93
same,glycan array binding signal (z-score),[18],0.561
same,glycan array binding signal (z-score),[19],0.545
same,glycan array binding signal (z-score),[20],-0.236
same,glycan array binding signal (z-score),[21],0.591
same,glycan array binding signal (z-score),[22],-0.28
same,glycan array binding signal (z-score),[23],1.47
same,glycan array binding signal (z-score),[24],4.04
same,glycan array binding signal (z-score),[25],3.52
same,glycan array binding signal (z-score),[26],4.15
same,glycan array binding signal (z-score),[27],5.18
same,glycan array binding signal (z-score),[28],1.06
same,glycan array binding signal (z-score),[29],7.08
same,glycan array binding signal (z-score),[30],13.2
same,glycan array binding signal (z-score),[31],4.04
same,glycan array binding signal (z-score),[32],-0.396
same,glycan array binding signal (z-score),[33],-0.215
same,glycan array binding signal (z-score),[34],-0.281
same,glycan array binding signal (z-score),[35],-0.084
same,glycan array binding signal (z-score),[36],-0.314
same,glycan array binding signal (z-score),[37],-0.14
